About 100 (0.036%) of roughly 280,000 compounds were called active. The inconclusive results got no clear call from the source; some entries with a clear call stand among them for comparison. The call rests on the fitted dose curve; in most records, active means well fitted inhibition curve with a large enough effect in the signal ratio, with a control signal flat (not every such curve was filed as active); inconclusive means small, poorly fitted or top-dose-only effect, or effect the other way, or a change in a side signal; inactive means no such curve, though single readings can be large or run the other way; the % refers to the signal ratio. Potencies of inconclusive entries are doubtful fits and often do not repeat. A note “side channel” means that the fit belongs to a control or component signal, not to the main read-out.
target: Muscleblind-like protein 1 (Homo sapiens) (UniProt Q9NR56); experiment: qHTS Assay for Inhibitors of MBNL1-poly(CUG) RNA binding; details: TR-FRET MBNL1-His/biotin-(CUG)12 binding, 665/545 ratio; series mostly up to 57.5 µM
Chain of UniProt Q9NR56 (Q9NR56 whole entry, looked up): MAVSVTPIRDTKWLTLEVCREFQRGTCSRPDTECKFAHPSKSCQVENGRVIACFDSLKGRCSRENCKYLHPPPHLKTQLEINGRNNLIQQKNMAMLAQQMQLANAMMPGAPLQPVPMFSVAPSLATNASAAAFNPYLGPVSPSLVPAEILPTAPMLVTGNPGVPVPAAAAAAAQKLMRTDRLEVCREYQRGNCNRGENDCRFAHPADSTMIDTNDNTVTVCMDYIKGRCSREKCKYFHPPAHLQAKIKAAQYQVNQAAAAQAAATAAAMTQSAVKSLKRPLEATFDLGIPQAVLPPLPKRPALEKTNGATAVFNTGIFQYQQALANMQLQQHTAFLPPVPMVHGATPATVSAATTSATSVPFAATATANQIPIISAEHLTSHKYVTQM
Summary of the method: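 Inhibition of protein-RNA binding appears as loss of TR-FRET between terbium anti-His antibody on MBNL1-His and streptavidin-XL665 on biotin-(CUG)12. Activity is normalized to buffer-only and uninhibited-complex controls.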
Potency means the concentration at half of the fitted maximal effect; tags describe the fitted curve by direction and shape or compound fluorescence and quenching.

| Compound | Potency |
| --- | --- |
| CCN(CC)S(=O)(=O)c1ccc(OCC2CCCCO2)c([N+](=O)[O-])c1 (stereo not drawn) | inconclusive: 17.8 µM [quencher, side channel, partial curve] |
| COCCN1C(=O)c2oc3c(C)cc(C)cc3c(=O)c2C1c1cccc(O)c1 (stereo not drawn) | inconclusive: 31.6 µM [quencher, side channel, partial curve] |
| CC(C(=O)c1ccc(Br)cc1)[n+]1cccc2ccccc21 (stereo not drawn) | inconclusive: 20 µM [quencher, partial curve] |
| C=CCn1c(=NC(=O)C2CCCCC2)sc2cc(NC(C)=O)ccc21 | inconclusive: 3.98 µM [quencher, side channel, single point] |
| O=C(O)CC(NC(=O)c1cccc([N+](=O)[O-])c1)c1ccc2c(c1)OCO2 (stereo not drawn) | inconclusive: 15.8 µM [quencher, side channel, partial curve] |
| CC(C)CNC(=S)NC1CC2CCC(C1)N2Cc1ccccc1 (stereo not drawn) | inactive |
| O=C(Nc1ccccc1)Nc1ncc([N+](=O)[O-])s1 | inconclusive: 14.1 µM [quencher, partial curve] |
| CCOCCCn1c(=NC(C)=O)c(C(=O)OCC)cc2c(=O)n3ccccc3nc21 | inconclusive: 10 µM [quencher, side channel, partial curve] |
| C/C(=N\Nc1nccnc1Cl)c1ccc(O)cc1 | inactive |
| CCN(CC)CCCNC(=S)N(Cc1cccnc1)Cc1cc2cccc(C)c2[nH]c1=O | inactive |
| c1ccc(-n2ncc3c(NCc4cccnc4)ncnc32)cc1 | inactive |
| COc1ccc(C(C)=O)cc1CSc1nnc2c(Cl)cc(Cl)cn12 | inconclusive: 14.1 µM [quencher, side channel, partial curve, poor fit] |
| C=CCNC(=O)c1ccc(-c2cccc([N+](=O)[O-])c2)o1 | inconclusive: 7.94 µM [quencher, side channel, partial curve] |
| Cc1cccc(C(=O)N2CCN=C2SCc2ccc([N+](=O)[O-])cc2)c1 | inactive |
| N#CC/C(N)=N/Nc1nc2ccccc2nc1Cc1ccccc1 | inconclusive: 22.4 µM [quencher, side channel, partial curve] |
| CC(=O)C1=C(O)C(=O)N(c2ccc(C)cc2)C1c1ccc([N+](=O)[O-])cc1 (stereo not drawn) | inconclusive: 28.2 µM [quencher, partial curve] |
| C=CCn1c(=NC(=O)c2ccc(S(=O)(=O)N3CCc4ccccc4C3)cc2)sc2cc(S(N)(=O)=O)ccc21 | inconclusive: 28.2 µM [fluorescent, side channel, single point] |
| CCn1c(C)cc2c(c1=O)C(c1ccncc1)C(C#N)=C(N)O2 (stereo not drawn) | inactive |
| CN=C1S/C(=C\c2ccc(OCC(=O)OC)c(OC)c2)C(=O)N1C | inconclusive: 14.1 µM [quencher, side channel, partial curve] |

| Compound | Potency |
| --- | --- |
| CN1CCN(C(=O)CCN2C(=O)/C(=C/c3ccc(F)cc3)SC2=S)CC1 | inconclusive: 14.1 µM [quencher, side channel, partial curve] |
| CC(C)(C)C(=O)/C=c1\s/c(=C\c2ccc(-c3ccc([N+](=O)[O-])cc3)o2)c(=O)n1CC(=O)NC(N)=O | inconclusive: 15.8 µM [quencher, side channel, partial curve] |
| COc1cc(C2/C(=C(\O)c3ccc4c(c3)OCCO4)C(=O)C(=O)N2c2nnc(C)s2)cc(OC)c1OC (stereo not drawn) | inconclusive: 12.6 µM [quencher, side channel, partial curve] |
| COc1c(OC(C)=O)ccc(/C=C/c2ccc3ccccc3n2)c1[N+](=O)[O-] | inactive |
| O=C(Nc1ccncc1)c1ccc2c(c1)C(=O)N(C1CCCCC1)C2=O | inconclusive: 14.1 µM [quencher, partial curve] |
| CC(=O)Nc1ccc(S(=O)(=O)NCCOc2ccc(Cl)cc2C)cc1 | inactive |
| O=c1c2ccccc2[nH]c2ccc(O)cc12 | inconclusive: 14.1 µM [quencher, partial curve] |
| O=C(NCC1CCCO1)C(=O)N/N=C\c1ccc2c(c1)OCO2 (stereo not drawn) | inconclusive: 10 µM [quencher, side channel, partial curve] |
| CN(C)S(=O)(=O)c1cccc(NC(=O)COC(=O)/C=C/c2cccs2)c1 | inconclusive: 28.2 µM [quencher, side channel, single point] |
| O=[N+]([O-])c1ccc(Cc2ccncc2)cc1 | inconclusive: 17.8 µM [quencher, side channel, partial curve] |
| CC(C)S(=O)(=O)C1=NSC2=NC(=O)/C(=C\c3ccc(-c4cccc(C(=O)O)c4)o3)C(=N)N21 | inconclusive: 35.5 µM [quencher, side channel, partial curve] |
| CC(C)CN1C(=O)c2ccc(C(=O)Nc3nccs3)cc2C1=O | inconclusive: 4.47 µM [quencher, side channel, partial curve] |
| COc1cccc(-n2nc(-c3ccnn3-c3ccc(F)cc3)c(=O)n(C)c2=O)c1 | inconclusive: 39.8 µM [quencher, side channel, single point] |
| CC(=O)Nc1ccccc1OCC(=O)c1ccc2c(c1)OCO2 | inactive |
| Cc1cc(NC(=O)c2cc(-c3ccco3)on2)n(-c2ccccc2)n1 | inconclusive: 0.891 µM [quencher, side channel, full curve, poor fit] |
| Cc1ccc(N(CC(N)=O)C2SC(=O)N(C)C2=O)cc1 (stereo not drawn) | inconclusive: 2.51 µM [quencher, side channel, partial curve] |
| O=C(NCc1cc([N+](=O)[O-])ccc1O)c1cccnc1Sc1ccccc1Cl | inconclusive: 39.8 µM [quencher, single point] |
| Cc1ccc(S(=O)(=O)N(C)C)cc1NC(=O)c1cc(=O)c2ccccc2o1 | inconclusive: 28.2 µM [quencher, side channel, partial curve] |
| Cc1cccn2c(=O)c(/C=C(\C#N)C(N)=O)c(Oc3ccccc3)nc12 | inconclusive: 28.2 µM [quencher, side channel, single point] |
